For two compounds, TGI and GI50 results are on record in PubChem BioAssay (NCI).

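48-hour exposure; five concentrations; linearly interpolated endpoints. GI50 is the concentration that inhibits growth by half.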 Certain results were filed several times, with different values. The other results are left out here. The source may hold further records. For part of these data: Values that stand side by side are repeats in other runs, samples, wells, individuals or studies. A tag in brackets gives the origin of a value. Letters hold for one entry only.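 TGI is the concentration that stops growth completely.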 For part of these data: The tests behind the records often covered other concentration ranges, which the source does not state; a value can be the end of its range.

Some test systems named below: OVCAR-4 ovarian; SNB-75 CNS; NCI-H23 lung; HOP-92 NSCLC; MALME-3M melanoma; UACC-257 melanoma; NCI-H460 lung; RXF 393 renal; IGROV1 ovarian; SF-268 CNS; COLO 205 colon; HS 578T breast.
Assay in all cases: inhibition of tumour cell growth, NCI panel, 48 h

As to `CC(=O)c1cccc(NC2C(N)C(NC(=O)N(C)C)(C(C)O)C(C)(O)C2(O)COC(=O)c2c(C)cccc2O)c1` (configuration not stated), the TGI in the experiment with OVCAR-4 ovarian was 20.8 nM and 213 nM; with SNB-75 CNS it was 17.3 nM and 1.73 µM; in the experiment on NCI-H23 lung, 13.3 nM and 217 nM; with HOP-92 NSCLC, < 1 nM and 330 nM; in the experiment on MALME-3M melanoma, 2.99 nM and 194 nM; with UACC-257 melanoma, 23 nM and 356 nM. The TGI with NCI-H460 lung is 13.9 nM and 1.03 µM; in the experiment with RXF 393 renal, 8.4 nM and 348 nM; in the experiment on IGROV1 ovarian, 35.2 nM and 473 nM; in the experiment on SF-268 CNS, 15.5 nM and 1.95 µM; with COLO 205 colon, 112 nM and 1.37 µM.

For the compound `Cc1nc(NC(=O)N2CCC[C@H]2C(N)=O)sc1-c1ccnc(C(C)(C)C(F)(F)F)c1`, in the experiment on HS 578T breast, the GI50 is 1.74 µM [sample A, mean of 2 tests] and 137 nM [sample B, 1 test].
